# The list shows a part of the results.
# Experiments:
# Experiment in all cases: glycan array binding signal (z-score within array); higher = stronger binding
# Settings in all cases: glycan notation: IUPAC condensed, linker removed
# [1] = molecular target: Neu5Ac(a2-6)GlcNAc(b1-4)GlcNAc(b1-4)GlcNAc
# In short: (§1)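 The Consortium for Functional Glycomics database supplied 3228 glycan arrays, of which those lacking an available protein sequence were dropped. The binding signal, a within-array Z-score, was averaged across arrays of the same protein sequence and across linkers. Negative scores can be read as non-binding.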
# Neu5Ac(a2-8)Neu5Ac = molecular target: Neu5Ac(a2-8)Neu5Ac
# In short: as §1
# [2] = molecular target: Neu5Ac(a2-8)Neu5Ac(a2-3)Gal(b1-3)GalNAc(b1-4)[Neu5Ac(a2-3)]Gal(b1-4)Glc
# In short: as §1
# [3] = molecular target: Neu5Ac(a2-8)Neu5Ac(a2-3)Gal(b1-3)GalNAc(b1-4)[Neu5Ac(a2-8)Neu5Ac(a2-3)]Gal(b1-4)Glc
# In short: as §1
# [4] = molecular target: Neu5Ac(a2-8)Neu5Ac(a2-3)Gal(b1-4)Glc
# In short: as §1
# [5] = molecular target: Neu5Ac(a2-8)Neu5Ac(a2-3)Gal(b1-4)GlcNAc
# In short: as §1
# [6] = molecular target: Neu5Ac(a2-8)Neu5Ac(a2-3)[Gal(b1-3)GalNAc(b1-4)]Gal(b1-4)Glc
# In short: as §1
# [7] = molecular target: Neu5Ac(a2-8)Neu5Ac(a2-3)[GalNAc(b1-4)]Gal(b1-4)Glc
# In short: as §1
# [8] = molecular target: Neu5Ac(a2-8)Neu5Ac(a2-8)Neu5Ac
# In short: as §1
# [9] = molecular target: Neu5Ac(a2-8)Neu5Ac(a2-8)Neu5Ac(a2-3)Gal(b1-4)Glc
# In short: as §1
# [10] = molecular target: Neu5Ac(a2-8)Neu5Ac(a2-8)Neu5Ac(a2-3)[Gal(b1-3)GalNAc(b1-4)]Gal(b1-4)Glc
# In short: as §1
# [11] = molecular target: Neu5Ac(a2-8)Neu5Ac(a2-8)Neu5Ac(a2-3)[GalNAc(b1-4)]Gal(b1-4)Glc
# In short: as §1
# [12] = molecular target: Neu5Ac(a2-8)Neu5Ac(a2-8)Neu5Ac(a2-8)Neu5Ac(a2-3)[GalNAc(b1-4)]Gal(b1-4)Glc
# In short: as §1
# [13] = molecular target: Neu5Ac(a2-8)Neu5Gc(a2-3)Gal(b1-4)GlcNAc
# In short: as §1
# [14] = molecular target: Neu5Ac(b2-6)Gal(b1-4)GlcNAc
# In short: as §1
# Neu5Ac(b2-6)GalNAc = molecular target: Neu5Ac(b2-6)GalNAc
# In short: as §1
# [15] = molecular target: Neu5Ac9Ac(a2-3)Gal(b1-4)GlcNAc
# In short: as §1
# [16] = molecular target: Neu5Ac9Ac(a2-6)Gal(b1-4)GlcNAc
# In short: as §1
# [17] = molecular target: Neu5Gc(a2-3)Gal(b1-3)GlcNAc
# In short: as §1
# [18] = molecular target: Neu5Gc(a2-3)Gal(b1-3)[Fuc(a1-4)]GlcNAc
# In short: as §1
# Neu5Gc(a2-3)Gal(b1-4)Glc = molecular target: Neu5Gc(a2-3)Gal(b1-4)Glc
# In short: as §1
# [19] = molecular target: Neu5Gc(a2-3)Gal(b1-4)GlcNAc
# In short: as §1
# [20] = molecular target: Neu5Gc(a2-3)Gal(b1-4)GlcNAc(b1-3)Gal(b1-4)GlcNAc(b1-2)Man(a1-3)[Neu5Gc(a2-3)Gal(b1-4)GlcNAc(b1-3)Gal(b1-4)GlcNAc(b1-2)Man(a1-6)]Man(b1-4)GlcNAc(b1-4)GlcNAc
# In short: as §1
# [21] = molecular target: Neu5Gc(a2-3)Gal(b1-4)[Fuc(a1-3)]GlcNAc
# In short: as §1
# [22] = molecular target: Neu5Gc(a2-6)Gal(b1-4)GlcNAc
# In short: as §1
# Neu5Gc(a2-6)GalNAc = molecular target: Neu5Gc(a2-6)GalNAc
# In short: as §1
# [23] = molecular target: Neu5Gc(a2-8)Neu5Ac(a2-3)Gal(b1-4)GlcNAc
# In short: as §1
# [24] = molecular target: Neu5Gc(a2-8)Neu5Gc(a2-3)Gal(b1-4)GlcNAc
# In short: as §1
# [25] = molecular target: Neu5Gc(a2-8)Neu5Gc(a2-3)Gal(b1-4)GlcNAc(b1-3)Gal(b1-4)GlcNAc
# In short: as §1
# [26] = molecular target: Neu5Gc(a2-8)Neu5Gc(a2-6)Gal(b1-4)GlcNAc
# In short: as §1
# [27] = molecular target: Neu5Gc(b2-6)Gal(b1-4)GlcNAc
# In short: as §1
binder,measurement,setting,value
"mCC1-Hexahis-Precomplexed (Mus musculus), P31809 (protein) MELASAHLHKGQVPWGGLLLTASLLASWSPATTAEVTIEAVPPQVAEDNNVLLLVHNLPLALGAFAWYKGNTTAIDKEIARFVPNSNMNFTGQAYSGREIIYSNGSLLFQMITMKDMGVYTLDMTDENYRRTQATVRFHVHPILLKPNITSNNSNPVEGDDSVSLTCDSYTDPDNINYLWSRNGESLSEGDRLKLSEGNRTLTLLNVTRNDTGPYVCETRNPVSVNRSDPFSLNIIYGPDTPIISPSDIYLHPGSNLNLSCHAASNPPAQYFWLINEKPHASSQELFIPNITTNNSGTYTCFVNNSVTGLSRTTVKNITVLEPVTQPFLQVTNTTVKELDSVTLTCLSNDIGANIQWLFNSQSLQLTERMTLSQNNSILRIDPIKREDAGEYQCEISNPVSVRRSNSIKLDIIFDPTQGGLSDGHHHHHH",glycan array binding signal (z-score),[1],-0.214
same,glycan array binding signal (z-score),Neu5Ac(a2-8)Neu5Ac,-0.252
same,glycan array binding signal (z-score),[2],-0.169
same,glycan array binding signal (z-score),[3],-0.186
same,glycan array binding signal (z-score),[4],-0.171
same,glycan array binding signal (z-score),[5],-0.242
same,glycan array binding signal (z-score),[6],-0.097
same,glycan array binding signal (z-score),[7],-0.146
same,glycan array binding signal (z-score),[8],-0.105
same,glycan array binding signal (z-score),[9],-0.176
same,glycan array binding signal (z-score),[10],-0.04
same,glycan array binding signal (z-score),[11],1.04
same,glycan array binding signal (z-score),[12],0.057
same,glycan array binding signal (z-score),[13],-0.232
same,glycan array binding signal (z-score),[14],-0.047
same,glycan array binding signal (z-score),Neu5Ac(b2-6)GalNAc,-0.179
same,glycan array binding signal (z-score),[15],0.497
same,glycan array binding signal (z-score),[16],-0.267
same,glycan array binding signal (z-score),[17],-0.164
same,glycan array binding signal (z-score),[18],-0.118
same,glycan array binding signal (z-score),Neu5Gc(a2-3)Gal(b1-4)Glc,-0.245
same,glycan array binding signal (z-score),[19],-0.213
same,glycan array binding signal (z-score),[20],-0.031
same,glycan array binding signal (z-score),[21],-0.274
same,glycan array binding signal (z-score),[22],-0.149
same,glycan array binding signal (z-score),Neu5Gc(a2-6)GalNAc,-0.227
same,glycan array binding signal (z-score),[23],-0.001
same,glycan array binding signal (z-score),[24],-0.133
same,glycan array binding signal (z-score),[25],-0.208
same,glycan array binding signal (z-score),[26],-0.191
same,glycan array binding signal (z-score),[27],-0.133

# From the supplement of paper PMC8728848
